Sequences with one replicate were seen in a single cluster, so their values are uncertain.
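Also: ATP exposure 15 min at 22 °C before imaging.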

This series concerns ATP. In words: switch fluorescence ratio, 500 uM ATP over buffer (Cy3 cluster intensity, sum of 5 cycles each) (fold (ratio)); higher = stronger signal-on switching upon ATP binding; sequences stand for … in TCGTCGGCAGCGTCAGATGTGTATAAGAGACAGTTTTTTTTTTTTTTTTTTTTTTTTT…TC. As to conditions: aptamer strand: ATP DNA aptamer (quencher-CACCTGGGGGAGTATTGCGGAGGAAGG + anchor), 100 nM annealed; ATP concentration: 500 uM; one replicate. In short, it runs like this: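 Cy3-labelled switching-strand clusters on a modified Illumina MiSeq flow-cell were annealed to 100 nM quencher-labelled ATP aptamer and imaged first in selection buffer, then after 15 min with 500 uM ATP at 22 °C. NaOH stripping and re-annealing separated each of five buffer/ATP cycles, and clusters outside 100-1000 RFU were excluded. The fluorescence ratio sums target-cycle Cy3 intensity over buffer-cycle Cy3 intensity per cluster and averages it per switch-domain sequence.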
Consider GACGGTGGGT, for which the switch fluorescence ratio was 1.02. To AATTCGTTTT belongs 1; to TAGACATCAT, 0.979. To ACCGTCGGGC belongs 1.09; to TGGTTTACA, 0.988.

Turning to GAGCATTGCA, the switch fluorescence ratio is 1.06.

For the sequence GTTCGTTTGC, the switch fluorescence ratio came to 1.04. To AGTCGTTGGC belongs 1.01; to GAATGTGAAG, 1.03; to AGCTTATAAG, 1.05. For CATGCATATG, the switch fluorescence ratio was determined as 0.936. On to CAGCCCTCCT, for which the switch fluorescence ratio came to 1.07. In the case of ATGGAAAGGC, the switch fluorescence ratio came out at 0.967.

As to ATCTAATATG, the switch fluorescence ratio was found to be 1.14.

Take AAAGGACATC: the switch fluorescence ratio was found to be 1.03.

On to TATGATCTAT, for which the switch fluorescence ratio was found to be 1.02. TGCCATAAG: the switch fluorescence ratio is 1.02. As for AGAAGGCTGA, the switch fluorescence ratio was 0.987. With GGCGTGAGTA, the switch fluorescence ratio was determined as 1.02. With AAATGGGGTA, the switch fluorescence ratio was 0.997. Then TATGTTGCAG, with 0.98; and TCAGGCATTA, with 1.12; and ACTAGTGGCA, with 1.02.

With GGACAGAGCA, the switch fluorescence ratio was found to be 1.03.

As for TAGTTCCGTA, the switch fluorescence ratio was 1.03. As for GCAGCCACTT, the switch fluorescence ratio came to 1.06. Then CAGATTAAGC, with 0.946. As for CGTAGCGACT, the switch fluorescence ratio worked out at 1.09. To GTATAATCTG belongs 1.02; to ACATGACCGC, 1.24; to GGGGACGCTA, 1.06.

As to ACCAGGCCCT, the switch fluorescence ratio came to 0.963. In the case of AGTAGTTCGC, the switch fluorescence ratio was 0.982. Consider CGTGGCGCAC, for which the switch fluorescence ratio came to 1.07.

For the sequence GGCTGAGGAA, the switch fluorescence ratio is 1.05. ACGCGAACAC: the switch fluorescence ratio worked out at 1.72.

In the case of TTAAGACC, the switch fluorescence ratio was found to be 1.01. Then TAACGTTGTA, with 1.02. For the sequence ATAGTCAACG, the switch fluorescence ratio turned out to be 0.957. Consider AAGGAGGGAA, for which the switch fluorescence ratio was found to be 0.987. With TGGGCAGCGA, the switch fluorescence ratio was 1.06. For GCGCCGTCAC, the switch fluorescence ratio was determined as 1.07. For the sequence ACCCAAGCGG, the switch fluorescence ratio was determined as 1.01. Then TATCATGAAT, with 1.03; and CTTCAATCGA, with 0.998; and TATACGGGTT, with 0.969. TTGAATGAGA: the switch fluorescence ratio came to 1.02.

CACGTGACGG: the switch fluorescence ratio came out at 1.19. As for AGTTAGATGA, the switch fluorescence ratio came out at 0.976. On to ATTTTTATTA, for which the switch fluorescence ratio turned out to be 0.987.

Consider TCGAAGATGA, for which the switch fluorescence ratio amounted to 1. In the case of CTTCCGTCGT, the switch fluorescence ratio stood at 1.45. As to CACTCAGGTC, the switch fluorescence ratio was 1.2. To TTCTAAGTAT belongs 1.05; to TTTCCCGTGC, 1.11; to TGAGCCGCGT, 1.02. Then GCTCACTTTA, with 1.11. To GACTGACTT belongs 1.13; to GGGAACATTG, 0.984; to AGGTGGCAGT, 0.992.

As for TCATAGGAAA, the switch fluorescence ratio amounted to 0.987. With CGACCAAGAT, the switch fluorescence ratio is 1.95. Regarding GGCTTATTC, the switch fluorescence ratio was 0.994. Regarding ATAGATCTTG, the switch fluorescence ratio worked out at 0.972. As to TGTGTAGACG, the switch fluorescence ratio was determined as 0.883. TTGTAGCATT: the switch fluorescence ratio stood at 1.09.

For the sequence TTGCGGAGGC, the switch fluorescence ratio was 0.986. Consider TGGTAGGAGT, for which the switch fluorescence ratio is 0.975. Regarding TATCAGTTTC, the switch fluorescence ratio was determined as 1.03.

For the sequence TCGAAATAGC, the switch fluorescence ratio came out at 1.22. For CCGGTATTAA, the switch fluorescence ratio was 1.14.

Take TATAGAGGTG: the switch fluorescence ratio was 1.09. Then AATACCGCTG, with 0.988; and GCGCAGTACA, with 2.33; and ATATCGACAA, with 1.02. Consider GCAGAGACGT, for which the switch fluorescence ratio was 1.01. Then TGTAACTGGC, with 1.1.

AGTGCACGGT: the switch fluorescence ratio came to 1.01. Then CCTAAGAGGC, with 0.993.

(Values after the supplement of paper PMC10126150.)
